Laboratory results published in the supplement of paper PMC3334620.
Over roughly 33,000 sequences, “E-score (-0.5 to 0.5)” has its median near -0.054; the highest 2% begin near 0.35. The list shows a part of the results.

These sequences were tested against T1, Stb5 (UniProt P38699) (assay: PBM E-score (8-mer binding enrichment) (E-score (-0.5 to 0.5)); higher = stronger / more preferred TF binding; most listed sequences are background and not binding sites). Settings: protein concentration: 200 nM; construct: GST-full length.
T1 sequence: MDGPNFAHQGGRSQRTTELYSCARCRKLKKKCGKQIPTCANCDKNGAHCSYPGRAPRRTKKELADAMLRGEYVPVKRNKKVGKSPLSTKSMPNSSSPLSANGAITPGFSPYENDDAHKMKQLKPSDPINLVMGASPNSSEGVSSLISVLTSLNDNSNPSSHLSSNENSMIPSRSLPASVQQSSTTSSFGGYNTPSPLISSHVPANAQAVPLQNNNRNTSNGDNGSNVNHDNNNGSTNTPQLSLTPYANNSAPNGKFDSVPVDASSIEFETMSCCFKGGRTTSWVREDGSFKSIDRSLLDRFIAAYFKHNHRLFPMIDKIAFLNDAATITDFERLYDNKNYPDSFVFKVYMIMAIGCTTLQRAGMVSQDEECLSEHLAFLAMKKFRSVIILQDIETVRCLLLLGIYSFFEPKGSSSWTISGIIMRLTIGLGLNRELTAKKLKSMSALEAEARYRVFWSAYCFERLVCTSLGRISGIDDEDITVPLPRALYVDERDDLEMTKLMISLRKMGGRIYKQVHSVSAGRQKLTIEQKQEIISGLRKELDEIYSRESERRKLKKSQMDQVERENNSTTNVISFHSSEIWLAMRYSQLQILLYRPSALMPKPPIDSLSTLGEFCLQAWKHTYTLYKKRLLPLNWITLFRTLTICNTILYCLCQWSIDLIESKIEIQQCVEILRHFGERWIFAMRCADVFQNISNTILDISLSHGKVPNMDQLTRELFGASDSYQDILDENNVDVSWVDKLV
Method: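 Universal 'all 10-mer' protein binding microarrays (Agilent AMADID 015681) probed with GST-tagged S. cerevisiae TFs (full-length or DBD) made by in vitro transcription/translation (PURExpress), about 100-200 nM. Bound TF was detected with fluorescent anti-GST. Each ungapped 8-mer (which stands for itself and its reverse complement) is scored by the PBM enrichment score (E-score), a modified Wilcoxon-Mann-Whitney statistic from -0.5 to +0.5, computed with the Universal PBM Analysis Suite. Scale: above 0.35 generally sequence-specific binding.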
For TAAACCGA, the “PBM E-score” value was 0.047. With CGTGGGGA the “PBM E-score” value was -0.119. In the case of AGGGCCAT, the “PBM E-score” value is reported as -0.213. In the case of AGCCCTGC, the “PBM E-score” value is reported as -0.106. GTTCGTCA was tested, and the “PBM E-score” value was -0.057. With AACGGCTT the “PBM E-score” value was 0.106. With CTCATGTC the “PBM E-score” value was -0.066. GCAGGTGA was tested, and the “PBM E-score” value was -0.157. AGCCATGG was tested, and the “PBM E-score” value was -0.342. ATCGGTTC was tested, and the “PBM E-score” value was 0.192. With AGCCTTCC the “PBM E-score” value was -0.237. In the case of TACGGCTA, the “PBM E-score” value is reported as -0.0852. With CAGATGAG the “PBM E-score” value was -0.31. In the case of CGGAACTC, the “PBM E-score” value is reported as 0.0793. In the case of CCAGCCGA, the “PBM E-score” value is reported as -0.223. ACTATCAA was tested, and the “PBM E-score” value was 0.025. With ACAAGCGG the “PBM E-score” value was 0.323. For ATCATGAC, the “PBM E-score” value was -0.131. With ATGAGAAC the “PBM E-score” value was -0.109. With ACCGTAAT the “PBM E-score” value was -0.0274. GATGTCAC was tested, and the “PBM E-score” value was -0.0653. For AATAGACC, the “PBM E-score” value was 0.0964. With AAGATCTT the “PBM E-score” value was -0.205. CTCTGCAG was tested, and the “PBM E-score” value was -0.158. CTTTTTAA was tested, and the “PBM E-score” value was -0.102. CGGCGTCA was tested, and the “PBM E-score” value was 0.384. With CAGGACTA the “PBM E-score” value was -0.141. CGATTTCA was tested, and the “PBM E-score” value was -0.0652. CAACTATG was tested, and the “PBM E-score” value was -0.144. With CCCTTGAC the “PBM E-score” value was -0.238. With CGTTTCCA the “PBM E-score” value was -0.0611. CTCGTTTA was tested, and the “PBM E-score” value was -0.122. In the case of CCTAAAGA, the “PBM E-score” value is reported as 0.119. With ACGAACAC the “PBM E-score” value was 0.0783. In the case of AGTGGCTA, the “PBM E-score” value is reported as -0.222. For GAGATTCA, the “PBM E-score” value was -0.152. For TGGAAACA, the “PBM E-score” value was -0.167. With GTAATCGA the “PBM E-score” value was -0.0672. In the case of TATTATCA, the “PBM E-score” value is reported as 0.121. CAATGACG was tested, and the “PBM E-score” value was 0.0473. With AGGCCTTA the “PBM E-score” value was -0.0641. For ATGTAAGC, the “PBM E-score” value was -0.0109. In the case of TCTAATCA, the “PBM E-score” value is reported as 0.031. CATGCTTA was tested, and the “PBM E-score” value was -0.058. With AAGCGTCT the “PBM E-score” value was -0.169. CTACGTAG was tested, and the “PBM E-score” value was 0.0194. For GGATTTTA, the “PBM E-score” value was 0.203. For AAATCCTG, the “PBM E-score” value was -0.143. CACCGTAC was tested, and the “PBM E-score” value was 0.213. For GAGATCGC, the “PBM E-score” value was -0.0831. For ACGGTGAG, the “PBM E-score” value was 0.141. With CCATGGTA the “PBM E-score” value was -0.0299. In the case of CATCCTGA, the “PBM E-score” value is reported as -0.194. For CCCCCAAA, the “PBM E-score” value was -0.276. With CCTCTGAG the “PBM E-score” value was -0.141. In the case of TACCGCAA, the “PBM E-score” value is reported as 0.225. With ACACGTTG the “PBM E-score” value was -0.333. With ACATCCCC the “PBM E-score” value was 0.111. ATGCCCCG was tested, and the “PBM E-score” value was 0.269. For AGAAACGA, the “PBM E-score” value was -0.253. With AAGCGGAG the “PBM E-score” value was 0.252. In the case of CTCCGTAA, the “PBM E-score” value is reported as 0.269. In the case of CGCACAGA, the “PBM E-score” value is reported as -0.182. For CGCGACAG, the “PBM E-score” value was -0.0215. In the case of CCCATCTC, the “PBM E-score” value is reported as -0.175. TGAACTAA was tested, and the “PBM E-score” value was -0.153. In the case of AATGTACC, the “PBM E-score” value is reported as 0.00655. In the case of CGTTTCCC, the “PBM E-score” value is reported as 0.12. In the case of CCTACTCA, the “PBM E-score” value is reported as 0.0235. GGATAACC was tested, and the “PBM E-score” value was 0.101. In the case of CTCGAGAG, the “PBM E-score” value is reported as -0.254. For AAGTTATC, the “PBM E-score” value was -0.116. In the case of ACAGTGAA, the “PBM E-score” value is reported as -0.147. For GACCTGAC, the “PBM E-score” value was -0.335. For AGAGGGCG, the “PBM E-score” value was -0.0169. In the case of GTAGGAGA, the “PBM E-score” value is reported as -0.104. For GGCATAAA, the “PBM E-score” value was 0.247. CCCAGTAG was tested, and the “PBM E-score” value was -0.128. In the case of AAAGACAG, the “PBM E-score” value is reported as -0.00486. In the case of AGCCCCTA, the “PBM E-score” value is reported as -0.138. For GAGGCCCA, the “PBM E-score” value was -0.151. For GACGACCC, the “PBM E-score” value was -0.114. GCATCTAC was tested, and the “PBM E-score” value was 0.00096. For CTGCTCTC, the “PBM E-score” value was -0.121. In the case of CGCCGTAC, the “PBM E-score” value is reported as 0.194. ACTCCGAG was tested, and the “PBM E-score” value was 0.202.
